The source of these data is PubChem BioAssay AID1645887 (National Center for Advancing Translational Sciences (NCATS), 2021).

Where “and” joins values, the source holds several entries; their conditions need not be identical. Equal entries are not always repeated. The whole screen tested about 16,000 compounds, of which about 40 (0.2%) were called active. Inconclusive results (about 1%) are left out. Calls come from the whole dose curve; as a rule, active = well fitted activation curve with a large enough effect; inconclusive = small, poorly fitted or top-dose-only effect, or another doubt; inactive = no such curve, though single readings can be large or run the other way. The list shows a part of the results.
% is set by controls: 0 for no effect and ±100 for the full control effect.

UniProt Q8WZA2, sequence (Q8WZA2 whole entry, looked up): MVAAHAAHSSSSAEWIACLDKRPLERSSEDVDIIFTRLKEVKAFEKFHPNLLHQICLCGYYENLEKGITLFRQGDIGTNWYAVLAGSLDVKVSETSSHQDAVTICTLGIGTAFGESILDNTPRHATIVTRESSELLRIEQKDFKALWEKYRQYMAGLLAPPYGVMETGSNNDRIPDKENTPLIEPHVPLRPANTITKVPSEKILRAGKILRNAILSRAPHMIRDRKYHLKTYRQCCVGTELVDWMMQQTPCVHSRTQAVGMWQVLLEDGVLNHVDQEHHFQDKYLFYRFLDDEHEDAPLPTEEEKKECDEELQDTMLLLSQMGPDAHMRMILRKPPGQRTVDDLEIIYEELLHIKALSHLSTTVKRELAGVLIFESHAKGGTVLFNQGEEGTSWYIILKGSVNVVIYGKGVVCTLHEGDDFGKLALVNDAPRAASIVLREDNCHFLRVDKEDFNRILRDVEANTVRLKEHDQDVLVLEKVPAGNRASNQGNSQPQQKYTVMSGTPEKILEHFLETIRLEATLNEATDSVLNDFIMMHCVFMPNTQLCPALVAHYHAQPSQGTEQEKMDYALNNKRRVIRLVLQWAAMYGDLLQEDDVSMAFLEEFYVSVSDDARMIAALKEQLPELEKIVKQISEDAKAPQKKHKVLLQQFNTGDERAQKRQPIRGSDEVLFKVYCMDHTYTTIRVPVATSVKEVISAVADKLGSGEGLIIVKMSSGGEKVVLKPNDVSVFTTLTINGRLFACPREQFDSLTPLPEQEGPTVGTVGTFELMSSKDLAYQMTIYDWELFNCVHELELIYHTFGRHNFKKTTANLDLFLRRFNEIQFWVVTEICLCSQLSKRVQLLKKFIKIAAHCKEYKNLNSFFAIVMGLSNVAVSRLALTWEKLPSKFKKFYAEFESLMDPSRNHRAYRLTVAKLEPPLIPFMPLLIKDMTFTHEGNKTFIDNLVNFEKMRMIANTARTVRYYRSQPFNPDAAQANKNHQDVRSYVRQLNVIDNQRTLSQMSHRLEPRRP

The target of this assay is Rap guanine nucleotide exchange factor 4 (Homo sapiens) (UniProt Q8WZA2). Nature of the assay: Validation qHTS for agonist of cAMP-regulated guanine nucleotide exchange factor 4 (EPAC2).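 Note: exchange makes BODIPY-GDP fluorescence drop when released from Rap1B; series mostly up to about 150 µM.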 To be noted: EPAC2 Rap1B BODIPY-GDP exchange, fluorescence; activation: hits give high values. Summed up:
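Signal normalized against 6.5 mM cAMP as agonist control. Mix of EPAC2 (100 nM), RAP1B-BODIPY-GDP (250 nM) and GDP (50 uM) was read kinetically at 480/540 nm, every 5 min over 30 min, after 5 min room-temperature incubation with compound.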
In general terms: Quantitative high-throughput screening tests each substance at several concentrations.
Turning to `Cn1cccc1C(=O)N1CCC[C@@]2(CCN(C(=O)Nc3cccc(C#N)c3)C2)C1`, the activation was inactive: 8.76%.

For `COC(=O)N1CCC2(CC1)CN(C(=O)Nc1ccccc1)C2`, the activation was inactive: -0.285%.

Regarding `COc1ccc(Oc2ncc3ncc(=O)n(-c4ccc(OC)cc4)c3n2)cc1`, the activation was inactive: -8.14%.

`O=C1Cc2cc(CCN3CCN(c4nsc5ccccc45)CC3)c(Cl)cc2N1`: the activation was inactive: -25.8% and inactive: -8.5%.

Regarding `CO[C@H]1C=CO[C@@]2(C)Oc3c(C)c(O)c4c(O)c(c5c(nc6cc(C)ccn65)c4c3C2=O)NC(=O)/C(C)=C\C=C[C@H](C)[C@H](O)[C@@H](C)[C@@H](O)[C@@H](C)[C@H](OC(C)=O)[C@@H]1C`, the activation was inactive: -43.9%.

As for `OC[C@H]1O[C@@H]2O[C@H]3[C@H](O)[C@@H](O)[C@@H](O[C@H]4[C@H](O)[C@@H](O)[C@@H](O[C@H]5[C@H](O)[C@@H](O)[C@@H](O[C@H]6[C@H](O)[C@@H](O)[C@@H](O[C@H]7[C@H](O)[C@@H](O)[C@@H](O[C@H]8[C@H](O)[C@@H](O)[C@@H](O[C@H]1[C@H](O)[C@H]2O)O[C@@H]8CO)O[C@@H]7CO)O[C@@H]6CO)O[C@@H]5CO)O[C@@H]4CO)O[C@@H]3CO`, the activation was inactive: -46.1%.

As for `O=c1c(-c2ccccc2)nc2cncnc2n1Cc1ccc(F)cc1`, the activation is inactive: -7.11%.

In the case of `Cc1cc(C)n2nc(C(=O)NCC3Cc4cccc(-c5ccc(S(C)(=O)=O)cc5)c4O3)cc2n1` (configuration not stated), the activation is inactive: 2.37%.

As to `COc1ccc(-c2cc(C)cc3c2OC(CNC(=O)/C=C/c2ccncc2)C3)nn1` (configuration not stated), the activation is inactive: -19.9%.

Regarding `OCCN1CCN(Cc2ccc3c(c2)CN(Cc2cnc(-c4ccccc4)s2)CCO3)CC1`, the activation was inactive: -15%.

On to `O=C(CS(=O)Cc1ccco1)NCC=CCOc1cc(CN2CCCCC2)ccn1` (configuration not stated), for which the activation was inactive: -6.18%.

For `CN(C)c1ccc(-c2cc(NCc3ccccc3)ncn2)cc1`, the activation is inactive: -4.8%.

With `O=c1cc(-c2ccc(O)c(O)c2)oc2cc(O)cc(O)c12`, the activation is inactive: -3.66% and inactive: -35%.

On to `C=CC(C)=C[C@@]1(C)SC(=O)C(C)=C1O`, for which the activation is inactive: -18.4%.

Turning to `CC(=O)Nc1ccc(NC(=S)NC(=O)c2ccc(C(C)(C)C)cc2)cc1`, the activation is inactive: -4.58%.

As to `O=C1CCN(Cc2ccc(O)cc2)CCN1[C@H](CO)Cc1ccccc1`, the activation is inactive: -28.7%.

`O=C(c1cnn(-c2nccc(-c3ccccc3F)n2)c1C1CC1)N1CCCCC1c1cccnc1` (configuration not stated): the activation was inactive: -1.84%.

As to `CN1CC(=O)NC1=N`, the activation is inactive: 7.23%.

Turning to `O=C1C(c2[nH]c3ccc(S(=O)(=O)O)cc3c2O)=Nc2ccc(S(=O)(=O)O)cc21`, the activation was inactive: 8.08% and inactive: -10.3% and inactive: -4.72%.

Consider `CS(=O)(=O)Nc1cccc(-c2nc(N3CCOCC3)c3ccccc3n2)c1`, for which the activation was inactive: -12.7%.

As to `Cc1c(C)c2c(c(C)c1OC(=O)CCC(=O)OCCO)CC[C@@](C)(CCC[C@H](C)CCC[C@H](C)CCCC(C)C)O2`, the activation was inactive: -46.6%.

As to `CCOC(=O)Cc1cccc(-c2cc(CCCCCCc3ccc(O[C@H]4O[C@H](COC(C)=O)[C@@H](OC(C)=O)[C@H](OC(C)=O)[C@@H]4OC(C)=O)c(-c4cccc(CC(=O)OCC)c4)c3)ccc2O[C@H]2O[C@H](COC(C)=O)[C@@H](OC(C)=O)[C@H](OC(C)=O)[C@@H]2OC(C)=O)c1`, the activation was inactive: -16%.

For `O=S1(=O)CCOC[C@H](c2ccccc2)N1Cc1ccccc1`, the activation was inactive: -18.9%.

In the case of `Cc1ccccc1-c1ccc2ncnc(N3CCOCC3)c2c1`, the activation was inactive: -1.43%.

Take `CC(C)(C(=O)c1cccnc1)c1cccnc1`: the activation is inactive: 2.74%.

On to `C[C@@H](c1ncncc1F)C(O)(Cn1cncn1)c1ccc(F)cc1F` (some centres not stated), for which the activation was inactive: -1.04%.

As for `NCCCCNCCCN`, the activation is inactive: -3.68% and inactive: 0.0336% and inactive: -24.4%.

For `Cc1cc[n+](C2CCCCC2)cc1`, the activation was inactive: -33.2%.

Consider `Nc1ncn([C@H]2C[C@H](O)[C@@H](CO)O2)c(=O)n1`, for which the activation is inactive: -7.9%.

For the compound `Cc1ncc2c(c1O)COP(=O)(O)OC2`, the activation is inactive: -19.6%.

With `N#CCCn1c(=O)c(-c2ccc(Cl)cc2)nc2cnc(Nc3ccccc3)nc21`, the activation was inactive: 15.6%.

Turning to `CCOC(=O)c1ccc(-c2c(-c3ccc4c(c3)OCO4)noc2C)cc1F`, the activation is inactive: -5.12%.

As to `CNC(CC(=O)O)C(=O)O` (configuration not stated), the activation is inactive: -3.61%.

Take `O=C(c1csnn1)N1CCC[C@@]2(CCN(c3ccccc3)C2)C1`: the activation is inactive: 3.5%.

Take `O=C(c1ccco1)N1CCC2(CCN(Cc3cc(C(F)(F)F)cc(C(F)(F)F)c3)CC2)CC1`: the activation is inactive: -16.1%.

Turning to `CC(=O)OCCNC(=O)c1cccnc1`, the activation was inactive: 0.295%.

`COc1cccc(-c2nccc(NCc3ccc(OC)cc3OC)n2)c1`: the activation was inactive: 8.43%.

With `CN(C)c1ccc(O)c2c1C[C@H]1C[C@H]3[C@H](N(C)C)C(=O)C(C(N)=O)=C(O)[C@@]3(O)C(=O)C1=C2O`, the activation was inactive: -29% and inactive: 9.09% and inactive: -33%.

Take `CN1CCc2cccc3c2[C@H]1Cc1ccc(O)c(O)c1-3`: the activation is inactive: -5.41% and inactive: -3.14%.

Take `COCc1c(C(=O)NC2CCCC2)cnn1-c1nccc(-c2cc(C)sc2C)n1`: the activation was inactive: -14.3%.

In the case of `CCC(Cc1c(I)cc(I)c(N)c1I)C(=O)O` (configuration not stated), the activation is inactive: -14% and inactive: -5.33%.

With `CCC(NC(C)C)C(O)c1ccc(O)c(O)c1` (configuration not stated), the activation was inactive: -1.63% and inactive: -25.2%.

Consider `CO[C@H]1[C@H](NC(=O)c2ccco2)c2ccccc2C12CCN(Cc1cccn1-c1ccccn1)CC2`, for which the activation was inactive: -1.37%.

`CCCCC/C=C\CCC(=O)N[C@H]1[C@H](Oc2c3cc4cc2Oc2ccc(cc2Cl)[C@@H](O[C@@H]2O[C@H](CO)[C@@H](O)[C@H](O)[C@H]2NC(C)=O)[C@@H]2NC(=O)[C@H](NC(=O)[C@@H]4NC(=O)[C@H]4NC(=O)[C@@H](Cc5ccc(c(Cl)c5)O3)NC(=O)[C@H](N)c3ccc(O)c(c3)Oc3cc(O)cc4c3)c3ccc(O)c(c3)-c3c(O[C@H]4O[C@H](CO)[C@@H](O)[C@H](O)[C@@H]4O)cc(O)cc3[C@@H](C(=O)O)NC2=O)O[C@H](CO)[C@@H](O)[C@@H]1O`: the activation is inactive: -57%.

`COc1ncc2nc(-c3ccccc3)c(=O)n(Cc3cccs3)c2n1`: the activation was inactive: -5.03%.

Regarding `COC(=O)[C@H]1C2CC3c4[nH]c5ccccc5c4CCN3CC2CC[C@@H]1O` (some centres not stated), the activation is inactive: 8.97%.

In the case of `COc1c2ccoc2nc2c(OC)c(O[C@@H]3O[C@H](C)[C@@H](O)[C@@H](O)[C@H]3O)ccc12`, the activation was inactive: -7.65%.

For `COc1cc(CNS(=O)(=O)CCl)cc(OC)c1OC`, the activation was inactive: -2.68%.

Consider `CCCC(=O)O`, for which the activation is inactive: 1.29%.

On to `CN1CCN(C2=Cc3ccccc3Oc3ccc(Cl)cc32)CC1`, for which the activation was inactive: -0.86% and inactive: -5.76%.

Regarding `N=C(C[C@@H](O)COc1ccccc1-c1ccccc1)N1CCCCC1`, the activation was inactive: -6.93%.

Regarding `C[C@]12CC[C@@H]3c4ccc(O)cc4CC[C@H]3[C@@H]1CC[C@@H]2OC(=O)CCC1CCCC1`, the activation was inactive: -18.4% and inactive: 3.27%.

`O=C(Nc1ccccc1)N1CCCC2(CCN(S(=O)(=O)c3ccccc3)CC2)C1`: the activation was inactive: -30%.

For the compound `Cc1cc(-c2ccnc(-n3ncc(C(=O)NCC4CCCO4)c3C3CC3)n2)c(C)s1` (configuration not stated), the activation is inactive: -6.02%.

On to `COc1ccc(Oc2ncc3nc(C)c(=O)n(Cc4cccs4)c3n2)cc1`, for which the activation was inactive: 17%.

For the compound `OC1(c2cccnc2)CCN(Cc2ccc3c(c2)CN(Cc2cccc4nccnc24)CCO3)CC1`, the activation was inactive: 4.15%.

On to `COc1cccc(-c2nc(NCc3cccs3)c3ccccc3n2)c1`, for which the activation was inactive: 3.13%.

As for `Cn1nnnc1SCC1=C(C(=O)O)N2C(=O)C(NC(=O)C(OC=O)c3ccccc3)C2SC1` (configuration not stated), the activation was inactive: -7.04%.

As for `N=C(N)c1ccc(OCCCOc2ccc(C(=N)N)cc2)cc1`, the activation is inactive: -3.81%.

As for `CC(N)=NCCCC[C@@H](N)C(=O)O`, the activation is inactive: -15%.

Turning to `COc1ccc2[nH]c(I)c(CCNC(C)=O)c2c1`, the activation was inactive: -8.32% and inactive: -1.72%.

As to `O=C(Oc1ccccc1)N1CCC2(CC1)CN(c1ccncc1)C2`, the activation is inactive: 6.05%.

For the compound `Cc1ccccc1-c1nc(NC2CC2)c2ccccc2n1`, the activation is inactive: -10%.

Regarding `Cn1cccc1C(=O)N1CCC2(CCN(C(=O)Nc3cccc(C#N)c3)CC2)CC1`, the activation was inactive: -24.6%.

As to `CCCCCCc1ccc(N2C[C@H](Cc3ccccc3)[C@@H](CC(=O)NCc3ccc(OC)cc3)C2=O)cc1`, the activation is inactive: -25.9%.

Take `CO[C@@]1(NC(=O)CSCC#N)C(=O)N2C(C(=O)O)=C(CSc3nnnn3C)CS[C@@H]21`: the activation was inactive: 0.319% and inactive: -7.43%.

With `NS(=O)(=O)c1cc(-c2nn[nH]n2)c(NCc2cccs2)cc1Cl`, the activation was inactive: -17.2%.

Regarding `COc1cc2nc(N3CCCC(O)C3)c(CNCc3ccccc3C(F)(F)F)cc2c(OC)c1OC` (configuration not stated), the activation was inactive: 6.54%.

For the compound `COc1ccc(-c2nc3cnc(N(C)C)nc3n(Cc3ccc(F)cc3)c2=O)cc1`, the activation is inactive: -8.79%.

On to `COC(=O)[C@H](CC(C)C)N(Cc1ccccc1)S(=O)(=O)N(Cc1ccc(OC)cc1)[C@@H](CC(C)C)C(=O)OC`, for which the activation is inactive: -19.3%.

`O=C(CCn1c(=O)[nH]c2ccccc21)NCC1Cc2cc(Cl)cc(-c3ccncc3)c2O1` (configuration not stated): the activation was inactive: -9.7%.

Consider `COc1ccccc1-c1ccc2ncnc(NCc3cnc(C)cn3)c2c1`, for which the activation was inactive: -5.51%.
